Experimental data published in patent publication US9668986B2, “Ophthalmic, intra-articular or intravesical preparations containing N-acyl-ethanolamines” (EPITECH GROUP S.R.I., priority 2014, dated 2017).

How the values were obtained:
[1] = polymeric emulsifier present
[2] = minimum amount of cyclodextrin

## CCCCC/C=C\C/C=C\C/C=C\CCCCC(=O)NCCO [gamma-LNEA, N-γ-linolenoylethanolamine]
[1]
  MβCD/NAE weight ratio giving stable solutions with polymeric emulsifier: ≥ 180:1
[2]
  minimum MβCD/NAE weight ratio to obtain the solubilization of the NAE: ≥ 180:1
